Data from PubChem BioAssay AID624417 (National Center for Advancing Translational Sciences (NCATS), 2012).
Out of some 410,000 compounds screened, about 6,400 (1.6%) were called active. Inconclusive results, whose numbers are uncertain, are shown with a selection of clear calls. Calls come from the whole dose curve; as a rule, active = well fitted inhibition curve with a large enough effect; inconclusive = small, poorly fitted or top-dose-only effect; inactive = no such curve, though single readings can be large or run the other way. No potency is given beside an inconclusive call; the fits are too rough.

What follows are compounds tested against Glucagon-like peptide 1 receptor (Homo sapiens) (UniProt P43220) (assay: qHTS of GLP-1 Receptor Inverse Agonists (Inhibition Mode)). Settings: HEK293 GLP-1R CRE-luciferase, luminescence, 24 h, GLP-1R form is constitutively active; series mostly up to 38.3 µM.
Summary of the method: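 Readout was luciferase luminescence, measured 12 min after detection reagent at room temperature. Beforehand, GLP-1R reporter HEK293 cells had sat 12 h, then received compounds for 24 hr at 37 deg C.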
Note: nearly all actives have a fitted effect of over 55% in size.
Potency is the fitted concentration of half-maximal effect; tags give direction and shape of the fitted curve.

UniProt P43220, sequence (P43220 whole entry, looked up): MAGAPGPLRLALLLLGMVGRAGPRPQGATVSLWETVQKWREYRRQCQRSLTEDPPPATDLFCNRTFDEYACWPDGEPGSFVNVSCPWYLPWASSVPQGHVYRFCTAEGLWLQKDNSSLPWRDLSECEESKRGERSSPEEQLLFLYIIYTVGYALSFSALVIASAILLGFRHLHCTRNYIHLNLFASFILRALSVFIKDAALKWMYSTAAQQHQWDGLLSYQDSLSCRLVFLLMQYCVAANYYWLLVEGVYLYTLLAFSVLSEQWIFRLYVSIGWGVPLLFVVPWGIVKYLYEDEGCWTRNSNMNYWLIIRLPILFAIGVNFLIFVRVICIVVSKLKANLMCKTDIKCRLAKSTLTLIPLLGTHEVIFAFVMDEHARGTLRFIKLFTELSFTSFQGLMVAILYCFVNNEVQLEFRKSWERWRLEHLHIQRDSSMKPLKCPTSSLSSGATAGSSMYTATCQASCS

**Q.** How did the Potency turn out when `Cc1oc2ccc(O)c(CN3CCCC(C)C3)c2c1C(=O)Nc1ccccc1` (configuration not stated) was run?
**A.** The Potency was inconclusive [inhibitor, single point].

**Q.** How did the Potency turn out when `CC(C)OCCCn1c(=O)c2ccccc2n2c(-c3ccccc3F)nnc12` was run?
**A.** Its Potency is inconclusive [inhibitor, single point].

**Q.** `CC(=O)Nc1ccc(-c2ccnc3c2CC(C)(C(=O)Nc2ccc(Cl)cc2)O3)cc1` (configuration not stated) was tested. Which Potency did it give?
**A.** Its Potency is inconclusive [inhibitor, single point].

**Q.** How did the Potency turn out when `Cc1ccc2c(C)c(C(=O)NCCc3ccco3)oc2c1C` was run?
**A.** Its Potency is inconclusive [inhibitor, single point].

**Q.** With `CCCCN(C(=O)COC(=O)CSc1ccc([N+](=O)[O-])cc1)c1c(N)n(CCC)c(=O)[nH]c1=O` as the compound, how does the Potency read?
**A.** The Potency was “inactive”.

**Q.** For `C/C=C/c1ccc(OCCOc2cccc3cccnc23)c(OC)c1`, which Potency is on record?
**A.** The Potency was inconclusive [inhibitor, partial curve, poor fit].

**Q.** Which Potency does the source give for `CCc1c(C)nc2nc(-c3ccccc3)nn2c1NCc1ccc(C)cc1` here?
**A.** The Potency was inconclusive [inhibitor, partial curve, poor fit].

**Q.** `COc1cccc2[nH]c(C(=O)NCc3ccc4c(c3)CCN4C(=O)c3ccc(F)cc3)cc12` was tested. Which Potency did it give?
**A.** Its Potency is inconclusive [inhibitor, partial curve, poor fit].

**Q.** `CCCCC(=O)NC(c1ccc(N(C)C)cc1)c1ccc2cccnc2c1O` (configuration not stated) was tested. Which Potency did it give?
**A.** Its Potency is inconclusive [inhibitor, partial curve, poor fit].

**Q.** With `O=C(CN1C(=O)NC(c2ccccc2)(c2ccccc2)C1=O)N1CCN(c2ccc(F)cc2)CC1` as the compound, how does the Potency read?
**A.** Its Potency is active: 7.94 µM.

**Q.** `CC(C)(C)OC(=O)C[C@H]1C/C=C\C[C@@H](CC(=O)N[C@H](CO)Cc2ccccc2)C(=O)NC[C@H](c2ccccc2)OC1=O` was tested. Which Potency did it give?
**A.** Its Potency is “inactive”.

**Q.** For `CCn1c(SCC(N)=O)nc2c(c1=O)C1(CCCC1)Cc1ccccc1-2`, which Potency is on record?
**A.** Its Potency is inconclusive [inhibitor, single point].

**Q.** How did the Potency turn out when `Cc1ccc(CN2CC(C(=O)N3CCN(c4ccccc4Cl)CC3)CC2=O)cc1` (configuration not stated) was run?
**A.** Its Potency is inconclusive [inhibitor, single point].

**Q.** Which Potency does the source give for `NC(=S)N/N=C1\CC(c2ccc3c(c2)OCCO3)Oc2ccc(F)cc21` (configuration not stated) here?
**A.** The Potency was active: 3.55 µM.

**Q.** For `Cc1nc2cc(NCc3ccc(Cl)cc3)ccc2n1C`, which Potency is on record?
**A.** Its Potency is inconclusive [inhibitor, single point].

**Q.** How did the Potency turn out when `O=C(C1=C[C@@H](C2CCCCC2)C[C@@H](OCCCCO)O1)N1CCN(Cc2ccc3c(c2)OCO3)CC1` was run?
**A.** Its Potency is inconclusive [inhibitor, partial curve, poor fit].

**Q.** `CCOC(=O)C1=CN(Cc2cccc(-c3cccnc3)c2)S(=O)(=O)N(CC)C1C` (configuration not stated) was tested. Which Potency did it give?
**A.** Its Potency is inconclusive [inhibitor, single point].
